{
  "source": "the supplement of paper PMC8728848",
  "assay_in_all_cases": "glycan array binding signal (z-score within array); higher = stronger binding",
  "conditions_in_all_cases": "glycan notation: IUPAC condensed, linker removed",
  "key": {"[1]": {"target": "Fuc(a1-2)[GalNAc(b1-3)]Gal", "procedure,_shortened": "(§1)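 The Consortium for Functional Glycomics database supplied 3228 glycan arrays, of which those lacking an available protein sequence were dropped. The binding signal, a within-array Z-score, was averaged across arrays of the same protein sequence and across linkers. Negative scores can be read as non-binding.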"}, "[2]": {"target": "Fuc(a1-3)GlcNAc", "procedure,_shortened": "as §1"}, "[3]": {"target": "Fuc(a1-3)[Gal(b1-4)]Glc6S", "procedure,_shortened": "as §1"}, "[4]": {"target": "Fuc(a1-3)[Gal(b1-4)]GlcNAc", "procedure,_shortened": "as §1"}, "[5]": {"target": "Fuc(a1-3)[Gal(b1-4)]GlcNAc(b1-2)Man", "procedure,_shortened": "as §1"}, "[6]": {"target": "Fuc(a1-3)[Gal(b1-4)]GlcNAc(b1-2)Man(a1-3)[Fuc(a1-3)[Gal(b1-4)]GlcNAc(b1-2)Man(a1-6)]Man(b1-4)GlcNAc(b1-4)GlcNAc", "procedure,_shortened": "as §1"}, "[7]": {"target": "Fuc(a1-3)[Gal(b1-4)]GlcNAc(b1-2)Man(a1-3)[Fuc(a1-3)[Gal(b1-4)]GlcNAc(b1-2)Man(a1-6)]Man(b1-4)GlcNAc(b1-4)[Fuc(a1-6)]GlcNAc", "procedure,_shortened": "as §1"}, "[8]": {"target": "Fuc(a1-3)[Gal(b1-4)]GlcNAc(b1-3)Gal(b1-3)[Fuc(a1-4)]GlcNAc", "procedure,_shortened": "as §1"}, "[9]": {"target": "Fuc(a1-3)[Gal(b1-4)]GlcNAc(b1-3)Gal(b1-4)[Fuc(a1-3)]GlcNAc", "procedure,_shortened": "as §1"}, "[10]": {"target": "Fuc(a1-3)[Gal(b1-4)]GlcNAc(b1-3)Gal(b1-4)[Fuc(a1-3)]GlcNAc(b1-3)Gal(b1-4)[Fuc(a1-3)]GlcNAc", "procedure,_shortened": "as §1"}, "[11]": {"target": "Fuc(a1-3)[Gal(b1-4)]GlcNAc(b1-3)GalNAc", "procedure,_shortened": "as §1"}, "[12]": {"target": "Fuc(a1-3)[Gal(b1-4)]GlcNAc(b1-6)GalNAc", "procedure,_shortened": "as §1"}, "[13]": {"target": "Fuc(a1-3)[Gal(b1-4)]GlcNAc(b1-6)[Gal(b1-3)GlcNAc(b1-3)]Gal(b1-4)Glc", "procedure,_shortened": "as §1"}, "[14]": {"target": "Fuc(a1-3)[Gal(b1-4)]GlcNAc6S", "procedure,_shortened": "as §1"}, "[15]": {"target": "Fuc(a1-3)[Gal3S(b1-4)]Glc", "procedure,_shortened": "as §1"}, "[16]": {"target": "Fuc(a1-3)[Gal3S(b1-4)]GlcNAc", "procedure,_shortened": "as §1"}, "[17]": {"target": "Fuc(a1-3)[Gal3S(b1-4)]GlcNAc6S", "procedure,_shortened": "as §1"}, "[18]": {"target": "Fuc(a1-3)[GalNAc(b1-4)]GlcNAc", "procedure,_shortened": "as §1"}, "[19]": {"target": "Fuc(a1-3)[GalNAc(b1-4)]GlcNAc6S", "procedure,_shortened": "as §1"}, "[20]": {"target": "Fuc(a1-4)GlcNAc", "procedure,_shortened": "as §1"}, "[21]": {"target": "Fuc(b1-3)GlcNAc", "procedure,_shortened": "as §1"}, "[22]": {"target": "Gal(a1-2)Gal", "procedure,_shortened": "as §1"}, "[23]": {"target": "Gal(a1-3)Gal", "procedure,_shortened": "as §1"}, "[24]": {"target": "Gal(a1-3)Gal(b1-3)GlcNAc", "procedure,_shortened": "as §1"}, "[25]": {"target": "Gal(a1-3)Gal(b1-3)GlcNAc(b1-2)Man", "procedure,_shortened": "as §1"}, "[26]": {"target": "Gal(a1-3)Gal(b1-3)GlcNAc(b1-2)Man(a1-3)[Gal(a1-3)Gal(b1-3)GlcNAc(b1-2)Man(a1-6)]Man(b1-4)GlcNAc(b1-4)GlcNAc", "procedure,_shortened": "as §1"}, "[27]": {"target": "Gal(a1-3)Gal(b1-3)GlcNAc(b1-3)GalNAc", "procedure,_shortened": "as §1"}, "[28]": {"target": "Gal(a1-3)Gal(b1-3)GlcNAc(b1-6)GalNAc", "procedure,_shortened": "as §1"}, "[29]": {"target": "Gal(a1-3)Gal(b1-3)[Fuc(a1-4)]GlcNAc(b1-2)Man(a1-3)[Gal(a1-3)Gal(b1-3)[Fuc(a1-4)]GlcNAc(b1-2)Man(a1-6)]Man(b1-4)GlcNAc(b1-4)GlcNAc", "procedure,_shortened": "as §1"}, "[30]": {"target": "Gal(a1-3)Gal(b1-4)Glc", "procedure,_shortened": "as §1"}},
  "note": "Some of the results follow.",
  "data": [
    {"binder": "a L Fucosidase (Streptosporangium roseum), D2B1P1_STRRD (protein) MRRKLLLVPAVGLLVIGSIFATQPVASADTPPVYEPTVESLNSHPVPQWFNDDKFGIFIHWGAYSVPAWGPRGSYAEWYGNYMNAGGSATNAHHKATYGQDFNYDAFLQQWKAEKFDPADWVKLFKDAGAKYFVLTSKHHEGMALWDSKSSGRDSVDLGPGRDLAKELFDAARKDEAKLKAGFYYSLYEWYNPAYTGRPATNPYTGAEIPYTGAPGGGDYVKDYMLPQMRELIDGYDPDIIWCDGQWEKPASYWNTAGVIADYYNKALNSGKEVAVANRCKIQSGNLDSPELDFQTPEYTVKPDIDPVKWESSRGIAHSYGYNQNEPEEDHLTSDQLVDSLVDIVSKNGNLLLDIGPKADGTIPEIQRQRLLDIGAWLKANGEAIYGTTYWNRAEEKGGPDDVRYTAKDATLYATALKWPGEQLTLGADLPVDHSTRITMLGSGARLSWSRDEQGRVVVNTPQEAGKHAYVFKIETPGVRSLLRTSSSLAKEIAPGRTISGELTVTNPGKRHTPATKLSLTVPQGWTATLGAPRVRPLGPGESVKVPISVSAPEGVAPAPYTLGLYQRTGRMGTTTALPLTVNRPNLSLGKPATQKSTGYDAPASRAVDGNTGGDWSAGSTTHTAEPEKQAWWQVDLGASARLDSVDVWNRLDCCADRLKDFWVMASDQPFTTDDLDQARTAPGVTAVHVGEQAGSPSKVKLPEGTRGRYVRIQLASPSNPLSLAEVQVRGSMARPNLSLGKPATQKSTGYDAPASRAVDGNTGGDWSAGSTTHTAEPEKQAWWQVDLGASARLDSVDVWNRLDCCADRLKDFWVMASDQPFTTDDLDQARTAPGVTAVHVGEQAGSPSKVKLPEGTRGRYVRIQLASPSNPLSLAEVQVRLEHHHHHHS", "values": [
      {"measurement": "glycan array binding signal (z-score)", "setting": "[1]", "value": -0.567},
      {"measurement": "glycan array binding signal (z-score)", "setting": "[2]", "value": 0.881},
      {"measurement": "glycan array binding signal (z-score)", "setting": "[3]", "value": -0.058},
      {"measurement": "glycan array binding signal (z-score)", "setting": "[4]", "value": 0.166},
      {"measurement": "glycan array binding signal (z-score)", "setting": "[5]", "value": -0.168},
      {"measurement": "glycan array binding signal (z-score)", "setting": "[6]", "value": -0.381},
      {"measurement": "glycan array binding signal (z-score)", "setting": "[7]", "value": -0.455},
      {"measurement": "glycan array binding signal (z-score)", "setting": "[8]", "value": -0.253},
      {"measurement": "glycan array binding signal (z-score)", "setting": "[9]", "value": 0.471},
      {"measurement": "glycan array binding signal (z-score)", "setting": "[10]", "value": 0.432},
      {"measurement": "glycan array binding signal (z-score)", "setting": "[11]", "value": 1.22},
      {"measurement": "glycan array binding signal (z-score)", "setting": "[12]", "value": -0.081},
      {"measurement": "glycan array binding signal (z-score)", "setting": "[13]", "value": -0.388},
      {"measurement": "glycan array binding signal (z-score)", "setting": "[14]", "value": -0.332},
      {"measurement": "glycan array binding signal (z-score)", "setting": "[15]", "value": -0.421},
      {"measurement": "glycan array binding signal (z-score)", "setting": "[16]", "value": 0.551},
      {"measurement": "glycan array binding signal (z-score)", "setting": "[17]", "value": -0.267},
      {"measurement": "glycan array binding signal (z-score)", "setting": "[18]", "value": -0.325},
      {"measurement": "glycan array binding signal (z-score)", "setting": "[19]", "value": -0.433},
      {"measurement": "glycan array binding signal (z-score)", "setting": "[20]", "value": 2.99},
      {"measurement": "glycan array binding signal (z-score)", "setting": "[21]", "value": 0.943},
      {"measurement": "glycan array binding signal (z-score)", "setting": "[22]", "value": -0.337},
      {"measurement": "glycan array binding signal (z-score)", "setting": "[23]", "value": -0.373},
      {"measurement": "glycan array binding signal (z-score)", "setting": "[24]", "value": -0.369},
      {"measurement": "glycan array binding signal (z-score)", "setting": "[25]", "value": -0.38},
      {"measurement": "glycan array binding signal (z-score)", "setting": "[26]", "value": -0.102},
      {"measurement": "glycan array binding signal (z-score)", "setting": "[27]", "value": 1.41},
      {"measurement": "glycan array binding signal (z-score)", "setting": "[28]", "value": -0.4},
      {"measurement": "glycan array binding signal (z-score)", "setting": "[29]", "value": -0.05},
      {"measurement": "glycan array binding signal (z-score)", "setting": "[30]", "value": -0.409}
    ]}
  ]
}
